# Reference: PubChem BioAssay AID463173 (ICCB-Longwood Screening Facility, Harvard Medical School, 2010)
# Among all 52,000 compounds or so, about 1,700 (3.3%) were called active. Cut-off read from the data, not from the text of the source: active = survival mostly below about 52% (no sharp cut-off); inactive = mostly above about 56%. Some of the results follow.
# Test system: Wild type
# Assay: S. aureus survival, RN4220 and DeltatarO strains – OD600, teichoic acid synthesis inhibitors, primary screen (AID 463173)
# Details: S. aureus RN4220 wild type/DeltatarO growth, OD600, 18 h, stronger effect = lower value, screened at 18.75 µg/mL (by protocol)
row,SMILES,survival
1,CCN(C(=O)Cn1ncc2c(=O)oc3ccc(C)cc3c21)c1cc(OC)ccc1OC,inactive: 86%
2,N#Cc1cccc(C(c2nnnn2Cc2ccc(F)cc2)N2CCc3ccccc32)c1 (stereo not drawn),inactive: 129%
3,COc1ccc(NC(=O)N2CCCC2C(=O)Nc2ccccc2)cc1 (stereo not drawn),inactive: 102%
4,O=C(Nc1ccccc1F)c1nc(SCc2ccc(F)cc2)ncc1Cl,inactive: 89%
5,CCCOc1ccccc1C(=O)N1CCCCC1CCN1CCOCC1 (stereo not drawn),inactive: 89%
6,O=c1[nH]c(NCCO)nc2sc3c(c12)CCCC3,inactive: 95%
7,CCOC(=O)C1CCCN(S(=O)(=O)c2ccc(N3CCCCS3(=O)=O)cc2)C1 (stereo not drawn),inactive: 66%
8,CC1CCc2noc(NC(=O)c3ccccc3[N+](=O)[O-])c2C1 (stereo not drawn),inactive: 115%
9,Cc1cc(C(F)F)n2nc(C(=O)Nc3cc(Cl)ccc3C)nc2n1,inactive: 83%
10,C/C(=C\C(=O)c1cccnc1)Nc1ccccc1O,inactive: 107%
11,CN1CCN(C(=O)c2ccc3c(c2)N(Cc2cccc(Cl)c2)C(=O)c2ccccc2S3(=O)=O)CC1,inactive: 68%
12,CCCN1C(=O)C(O)(CC(=O)c2ccc(OC)c(OC)c2)c2ccccc21 (stereo not drawn),inactive: 130%
13,O=C(Nc1ccc(C(F)(F)F)cc1)c1cc(S(=O)(=O)NC2CCCCC2)ccc1F,inactive: 81%
14,COc1ccccc1CNC(=O)C1CCN(S(=O)(=O)c2c(C)noc2/C=C/c2c(C)cc(C)cc2C)CC1,inactive: 85%
15,O=C(Nc1ccc2nc(SCCOc3ccccc3)sc2c1)c1cccs1,inactive: 92%
16,CCOc1ccccc1NC(=O)c1sc2nc(C)cc(C)c2c1N,inactive: 136%
17,Cc1coc2c(C)c3oc(=O)c(CC(=O)NCc4ccccc4)c(C)c3cc12,inactive: 87%
18,Cc1c(Cl)cccc1NC(=O)CN1C(=O)COc2ccc(S(=O)(=O)N3CCCCCC3)cc21,inactive: 83%
19,COc1cccc(CNC(=O)CSc2ncc3c(n2)-c2cc(Cl)ccc2N(C)S3(=O)=O)c1,inactive: 83%
20,CCCCOc1ccc(C2(C(=O)O)CCCC2)cc1,inactive: 105%
21,CCc1ccc(NC(=O)c2ccc(F)c(S(=O)(=O)NC3CCCCCC3)c2)cc1,active: -4%
22,O=C(N/N=C/c1ccc(F)cc1)c1ccc(NC(=O)C2CC2)cc1,inactive: 108%

row,SMILES,survival
1,Cc1ccc(Cl)cc1-n1c(=O)c2sc3ccccc3c2n(CC(=O)NC2CCCCC2)c1=O,inactive: 82%
2,COc1ccc(CNC(=O)Cn2c(=O)oc3cc(S(=O)(=O)N4CCC(C)CC4)ccc32)cc1,inactive: 133%
3,COc1cccc(CNC(=O)CN2C(=O)CSc3c2c(C)nn3-c2ccccc2)c1OC,inactive: 83%
4,Cc1cccc(C)c1NC(=O)c1nc(S(C)(=O)=O)ncc1N(Cc1ccc(F)cc1)Cc1ccco1,inactive: 87%
5,CCOC(=O)c1cnc2c(C)cc(C)cc2c1NCCc1ccc(OC)c(OC)c1,inactive: 75%
6,COc1ccc(N(C(=O)c2snc(C(N)=O)c2N)C(C(=O)NCc2ccc(F)cc2)c2ccc(C)o2)c(OC)c1 (stereo not drawn),inactive: 118%
7,Cc1ccc2c(CC(=O)NCc3ccccc3)coc2c1C,inactive: 94%
8,Cc1cc(-c2ccc(C)c(S(=O)(=O)Nc3ccccc3C(F)(F)F)c2)on1,inactive: 129%
9,COc1ccc(C(=O)N(Cc2ccc(N(C)C)cc2)Cc2ccco2)cc1Cl,inactive: 81%
10,O=c1c2sc3ccccc3c2n(Cc2ccccc2Cl)c(=O)n1Cc1ccccc1,inactive: 70%
11,Cc1ccc(C)n1-c1c(C(=O)NCC(C)c2ccccc2)sc2ncccc12 (stereo not drawn),inactive: 73%
12,OC(CNCc1ccccn1)COc1ccc(OCC(O)CNCc2ccccn2)cc1 (stereo not drawn),inactive: 101%
13,O=C(NCCc1csc(-c2ccc(C(F)(F)F)cc2)n1)C(=O)Nc1cc(F)ccc1F,inactive: 81%
14,COc1ccc(C(=O)Oc2c(Sc3ccc(Cl)cc3)c(C)nn2C(C)(C)C)cc1OC,inactive: 53%
15,COc1ccc(NC(=O)CCCn2c(=O)c3cccn3c3ccccc32)c(OC)c1,inactive: 70%
16,O=C(CCc1ccccc1)NCc1ccco1,inactive: 98%
17,CCc1ccccc1NC(=O)Cn1c(=O)n(CCCS(=O)(=O)C2CCCCC2)c(=O)c2ccccc21,inactive: 117%
18,O=C(Cn1c(=O)c2ccccc2n(CC(=O)Nc2ccc(Cl)cc2)c1=O)NCCc1ccccc1,inactive: 84%
19,CCCCN(C)CCNC(=O)C1CCCN(S(=O)(=O)c2ccc3c(c2)oc(=O)n3C)C1 (stereo not drawn),inactive: 83%
20,CCOC(=O)c1c(C)[nH]c(CCC(=O)NCCCN2CCN(c3cc(Cl)ccc3C)CC2)c1C,inactive: 78%
21,Cc1c(CCNC(=O)Cc2ccc(F)cc2)sc2nc(-c3ccc(F)cc3)nn12,inactive: 87%
22,CCOc1ccc(C(=O)Nc2cccc(OCc3cc(=O)n4ccccc4n3)c2)cc1,inactive: 123%

row,SMILES,survival
1,Cc1cccc(CNS(=O)(=O)c2csc(C(N)=O)c2)c1,inactive: 81%
2,O=C1C(c2cccc(Br)c2)N(CCc2ccccc2)C(=O)CN1C1CCCCC1 (stereo not drawn),inactive: 99%
3,CCOc1cccc(CNCCNC(=O)c2nonc2N)c1,inactive: 75%
4,O=S(=O)(Nc1cccc(-c2ccc(N3CCCCCC3)nn2)c1)c1ccc(F)cc1,inactive: 55%
5,Cc1ccccc1NS(=O)(=O)c1nnc(NC(=O)c2ccc(Cl)cc2)s1,inactive: 47%
6,CCOC(=O)c1[nH]c(C)c(CCC(=O)Nc2ccc(C(C)=O)cc2)c1C,inactive: 59%
7,CCC(=O)N1CCc2cc(Br)cc(S(=O)(=O)N3CCCC(C(=O)Nc4cccc(C)c4C)C3)c21 (stereo not drawn),inactive: 125%
8,Cc1ccccc1NC(=O)c1c(NC(=O)c2ccco2)sc2c1CCC(C(C)(C)C)C2 (stereo not drawn),inactive: 75%
9,COc1ccccc1CNC(=O)CSc1nc2nc(C)c(Cc3ccccc3Cl)c(C)n2n1,inactive: 65%
10,COc1ccc(C(=O)NCCN=C2NS(=O)(=O)c3ccccc32)cc1,inactive: 108%
11,COc1ccc(N2C(=O)CS(=O)(=O)C23C(=O)N(Cc2ccc(F)cc2)c2ccc(C)cc23)cc1 (stereo not drawn),inactive: 83%
12,Cc1ccc(Cl)cc1NC(=O)C1CCCN(S(=O)(=O)c2cccc3cccnc23)C1 (stereo not drawn),inactive: 76%
13,Cc1cc(C)c2c(=O)[nH]c(SCC(=O)NCCc3ccccc3)nc2n1,inactive: 99%
14,CCCCNC(=O)c1nn(-c2ccc(C)cc2)c(=O)n(C)c1=O,inactive: 68%
15,COc1ccc(CCNC(=O)c2cccc(-n3cnc4cccnc43)c2C)cc1OC,inactive: 125%
16,CC(CNC(=O)CN1C(=O)COc2ccc(S(=O)(=O)N3CCCCCC3)cc21)c1ccccc1 (stereo not drawn),inactive: 93%
17,CCc1ccc(Nc2nc(C)cc(C)c2C(N)=O)cc1,inactive: 107%
18,CC(Oc1ccccc1)C(=O)Nc1ccc(OCc2cc(=O)n3ccsc3n2)cc1 (stereo not drawn),inactive: 66%
19,OC(CNc1ccccn1)COc1ccc(OCC(O)CNc2ccccn2)cc1 (stereo not drawn),inactive: 95%
20,CCOC(=O)c1c(S(=O)(=O)N2CCCC(C(=O)Nc3cccc(C#N)c3)C2)c(C)n(C)c1C (stereo not drawn),inactive: 76%
21,Cc1ccccc1CNC(=O)c1cccc(NC(=O)N2CCSc3ncccc32)c1,inactive: 129%
22,Cc1cccc(C)c1NCc1nnc(SCC(N)=O)n1-c1ccccc1,inactive: 110%

row,SMILES,survival
1,CCOC(=O)c1c(S(=O)(=O)NCC(=O)Nc2ccc(C)c(N(C)C)c2)c(C)n(C)c1C,inactive: 71%
2,NS(=O)(=O)c1ccc(CCNC(=O)c2ccc3nc(CCc4ccccc4)oc3c2)cc1,inactive: 70%
3,Cc1cc2c(cc1S(=O)(=O)N(C)CC(=O)Nc1ccc(C#N)cc1)OCC(=O)N2,inactive: 64%
4,Cc1ccc(S(=O)(=O)c2cn(CC(=O)Nc3ccccc3C)c3cc4c(cc3c2=O)OCO4)cc1,inactive: 65%
5,Cc1ccc(C(=O)N2Cc3ccccc3CC2C(=O)O)cc1 (stereo not drawn),inactive: 111%
6,CCOc1ccc(CC(=O)Nc2c(C(=O)Nc3ccc(OC)cc3OC)oc3ccccc23)cc1,inactive: 77%
7,Cn1c(=O)c2c(SCC(=O)NCc3ccco3)nc(-c3cccc(F)c3)nc2n(C)c1=O,inactive: 71%
8,COc1ccc(-c2nc3cc(C)ccn3c2NC(=O)c2ccc(F)cc2)cc1,inactive: 73%
9,CCn1c(SCC(=O)Nc2ccc(OC)cc2)nnc1C1CC1,inactive: 98%
10,CCOC(=O)N1CCN(Cc2nc3cc([N+](=O)[O-])ccc3n2C(C)C)CC1,inactive: 84%
11,Cc1cccc(N2CCN(C(=O)CN3C(=O)COc4ccc(S(=O)(=O)N5CCC(C)CC5)cc43)CC2C)c1 (stereo not drawn),inactive: 80%
12,CC(C)c1nc2ccc(C(=O)NCCCN3CCN(c4cccc(Cl)c4)CC3)cc2o1,inactive: 71%
13,O=C(O)c1ccc2c(c1)C(=O)NC2=O,inactive: 113%
14,CCOc1ccc(CNC(=O)c2cnc3sc(N4CCOCC4)nn3c2=O)cc1OC,inactive: 136%
15,CCOc1ccc(CCNC(=O)c2nc(-c3cccc(F)c3)n3c2CCCCC3)cc1OCC,inactive: 152%
16,COC(=O)c1ccc(S(=O)(=O)N(CCO)Cc2cc3cc(OC)c(OC)cc3[nH]c2=O)cc1,inactive: 98%
17,Cc1cccc(N2CCN(C(=O)C3CCCN(S(=O)(=O)c4ccc(Br)s4)C3)CC2)c1C (stereo not drawn),inactive: 92%
18,CCOC(=O)C1CCC(CN(Cc2ccc(Cl)cc2)S(=O)(=O)c2cc(Cl)cc(Cl)c2)CC1 (stereo not drawn),inactive: 59%
19,Cc1ccc2scc(N3CCC(C)CC3)c(=O)c2c1,inactive: 126%
20,O=C(Cc1ccccc1)N1CCC(c2nc3ccccc3[nH]2)CC1,inactive: 117%
21,COc1cccc(NS(=O)(=O)c2ccc3c(c2)[C@H]2C=CC[C@H]2[C@@H](c2ccccc2Cl)N3)c1,inactive: 131%
22,CCN(CC)CCNC(=O)CSc1nc2nc(C)c(Cc3ccccc3)c(C)n2n1,inactive: 66%
